Test results reported in patent US9803019B2, “Carrier immunoglobulins and uses thereof” (Amgen Inc., priority 2010, dated 2017).

What was measured:
[1] = test system: cryosections of selected human tissues; assay: Human tissue cross-reactivity (immunohistochemistry on cryosections); conditions: Alexa Fluor 488 labeled antibody at 2.0 or 10.0 μg/mL; preliminary non-GLP study
Method: In general accordance with the guidance laid out in Points to Consider in the Manufacture and Testing of Monoclonal Antibody Products for Human Use (U.S. Department of Health and Human Services, Food and Drug Administration, Center for Biologics Evaluation and Research (1997)), a preliminary non-GLP study was carried out to determine cross-reactivity of inventive antibodies with a variety of human tissues. If an antibody is intended for drug development, a more extensive testing under GLP conditions is required. The tissue cross-reactivity of antibodies 16435 and 4341 was evaluated (Charles River Laboratories, Preclinical Services, Reno, Nev.) with cryosections of selected human tissues using Alexa Fluor 488 labeled forms of the test articles. Normal human tissues from two unique individuals (unless otherwise indicated) were obtained from the Special Pathology Services Human Tissue Bank collected by the National Disease Research Interchange (NDRI, Philadelphia, Pa.), Cureline, Inc. (Burlingame, Calif.), Cybrdi (Rockville, Md.), or Rocky Mountain Lions Eye Bank (Aurora, Colo.). Tissues tested included human cerebellum, lung, cerebral cortex, ovary ([…]), eye, placenta, gastrointestinal tract (small intestine), skin (1 individual), heart, spleen, kidney (1 individual), thyroid, liver, testis. […]

[2] = Rat PK, single SC dose (Example 4); assay type: in vivo, Sprague-Dawley rats; conditions: 5 mg/kg subcutaneously
Method: Serum concentrations were then determined using an anti-human Fc based ELISA.
The pharmacokinetic profile of the 16435, 16444, 4241, and 4341 carrier antibodies was determined in adult Sprague-Dawley rats (8-12 weeks old) by injecting 5 mg/kg subcutaneously and collecting approximately 250 μL of blood in Microtainer® serum separator tubes at 0, 0.25, 1, 4, 24, 48, 72, 96, 168, 336, 504, 672, 840 and 1008 hours post-dose from the lateral tail vein. Each sample was maintained at room temperature following collection, and following a 30-40 minute clotting period, samples were centrifuged at 2-8° C. at 11,500 rpm for about 10 minutes using a calibrated Eppendorf 5417R Centrifuge System (Brinkmann Instruments, Inc., Westbury, N.Y.). The collected serum was then transferred into a pre-labeled (for each rat), cryogenic storage tube and stored at −60° C. to −80° C. for future analysis. To measure the serum sample concentrations from the PK study samples, the following method was used: ½ area black plate (Corning 3694) was coated with 2 μg/ml of anti-hu Fc, antibody 1.35.1 in PBS and then incubated overnight at 4° C. The plate was then washed and blocked with I-Block™ (Applied Biosystems) overnight at 4° C. […] The plate was washed, then 50 μl of Pico substrate were added, after which the plate was immediately analyzed with a luminometer.

B1: 4341 (antibody)
heavy: QVQLQESGPGLVKPSQTLSLTCTVSGGSISSGDYFWSWIRQLPGKGLEWIGHIHNSGTTYYNPSLKSRVTISVDTSKKQFSLRLSSVTAADTAVYYCARDRGGDYAYGMDVWGQGTTVTVSSASTKGPSVFPLAPSSKSTSGGTAALGCLVKDYFPEPVTVSWNSGALTSGVHTFPAVLQSSGLYSLSSVVTVPSSSLGTQTYICNVNHKPSNTKVDKRV[here human IgG1 Fc without letters]
light: EIVLTQSPGTLSLSPGERATLSCRASQGISRSELAWYQQKPGQAPSLLIYGASSRATGIPDRFSGSGSGTDFTLTISRLEPEDFAVYYCQQFGSSPWTFGQGTKVEIKRTVAAPSVFIFPPSDEQLKSGTASVVCLLNNFYPREAKVQWKVDNALQSGNSQESVTEQDSKDSTYSLSSTLTLSKADYEKHKVYACEVTHQGLSSPVTKSFNRGEC
specific staining of human tissues (cross-reactivity) [1]: no specific staining in any human tissue examined | AUC0-t±SD [2]: 24,513±972 μg/h/mL
